{"source": "paper PMC3734299", "about": "“Farnesyl Phosphatase, a Corpora allata Enzyme Involved in Juvenile Hormone Biosynthesis in Aedes aegypti” (PLoS ONE, 2013)", "target": "T1, AaFPPase-3 (Aedes aegypti, UniProt A0A1S4FMV7)", "T1 construct": "gene 110678816", "T1 sequence (A0A1S4FMV7 1-317)": "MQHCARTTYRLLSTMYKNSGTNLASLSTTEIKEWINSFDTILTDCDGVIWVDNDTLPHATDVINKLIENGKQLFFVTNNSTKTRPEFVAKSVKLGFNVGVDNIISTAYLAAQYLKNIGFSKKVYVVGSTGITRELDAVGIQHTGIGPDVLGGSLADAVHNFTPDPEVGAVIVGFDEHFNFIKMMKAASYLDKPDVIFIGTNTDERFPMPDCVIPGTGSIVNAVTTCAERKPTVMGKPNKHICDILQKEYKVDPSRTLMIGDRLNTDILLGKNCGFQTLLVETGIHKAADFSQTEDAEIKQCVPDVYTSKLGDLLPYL", "assay": "p-NPP phosphatase assay", "conditions": "Mg2+ cofactor; optimum pH 6.0", "data": [{"compound": "O=[N+]([O-])c1ccc(OP(=O)(O)O)cc1", "note": "[p-NPP]", "values": [{"measurement": "p-NPP phosphatase assay", "result": "All AaFPPases hydrolyzed p-NPP, but only AaFPPase-1 and -2 converted FPP into farnesol"}]}]}
